Results taken from PubChem BioAssay AID504332 (National Center for Advancing Translational Sciences (NCATS), 2011).
Out of some 350,000 compounds screened, about 31,000 (8.9%) were called active. The inconclusive results got no clear call from the source; some entries with a clear call stand among them for comparison. The call rests on the fitted dose curve; in most records, active means well fitted inhibition curve with a large enough effect; inconclusive means small, poorly fitted or top-dose-only effect; inactive means no such curve, though single readings can be large or run the other way. A potency beside an inconclusive call is a rough fit, not a confirmed value.

These compounds were tested against Histone-lysine N-methyltransferase EHMT2 (Homo sapiens) (UniProt Q96KQ7) (assay: qHTS Assay for Inhibitors of Histone Lysine Methyltransferase G9a). Conditions: G9a H3K9 monomethylation, AlphaScreen, 2 h; activity, negative = inhibition: at 59 µM (top of the series) unless noted.
UniProt Q96KQ7, sequence (Q96KQ7 whole entry, looked up): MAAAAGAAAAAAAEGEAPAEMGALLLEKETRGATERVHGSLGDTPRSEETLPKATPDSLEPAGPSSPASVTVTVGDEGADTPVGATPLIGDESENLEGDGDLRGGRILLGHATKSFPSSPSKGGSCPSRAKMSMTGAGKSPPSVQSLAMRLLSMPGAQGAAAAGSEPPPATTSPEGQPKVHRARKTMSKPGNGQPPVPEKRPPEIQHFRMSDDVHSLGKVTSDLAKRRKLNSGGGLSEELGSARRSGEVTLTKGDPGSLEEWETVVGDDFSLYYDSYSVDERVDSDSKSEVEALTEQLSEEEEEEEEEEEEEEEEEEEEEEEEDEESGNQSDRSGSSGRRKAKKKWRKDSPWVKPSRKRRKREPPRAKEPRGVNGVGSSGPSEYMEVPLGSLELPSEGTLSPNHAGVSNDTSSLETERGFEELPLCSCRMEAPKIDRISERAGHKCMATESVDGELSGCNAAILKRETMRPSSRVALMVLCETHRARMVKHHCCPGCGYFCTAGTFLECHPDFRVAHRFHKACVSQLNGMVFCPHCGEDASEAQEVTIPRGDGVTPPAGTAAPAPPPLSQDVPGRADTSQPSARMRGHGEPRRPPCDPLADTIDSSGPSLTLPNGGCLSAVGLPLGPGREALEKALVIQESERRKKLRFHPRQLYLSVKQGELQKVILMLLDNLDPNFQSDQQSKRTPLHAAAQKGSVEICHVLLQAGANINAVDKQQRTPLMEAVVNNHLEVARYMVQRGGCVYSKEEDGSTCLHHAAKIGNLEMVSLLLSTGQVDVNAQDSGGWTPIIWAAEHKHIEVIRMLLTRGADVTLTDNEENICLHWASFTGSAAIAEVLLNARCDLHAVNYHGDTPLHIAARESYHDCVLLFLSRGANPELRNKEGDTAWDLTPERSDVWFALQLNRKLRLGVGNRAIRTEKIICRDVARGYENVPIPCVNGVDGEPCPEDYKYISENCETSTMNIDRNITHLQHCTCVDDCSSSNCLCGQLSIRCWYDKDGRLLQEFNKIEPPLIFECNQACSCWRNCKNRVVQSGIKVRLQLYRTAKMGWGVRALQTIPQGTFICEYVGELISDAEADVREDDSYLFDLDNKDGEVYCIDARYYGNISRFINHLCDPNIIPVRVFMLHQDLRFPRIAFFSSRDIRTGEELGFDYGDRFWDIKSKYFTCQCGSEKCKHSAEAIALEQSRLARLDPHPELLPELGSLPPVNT
Summary of the method: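 G9a (20 nM) was preincubated 15 min with compound, then reacted 2 h at room temperature with 500 nM biotin-H3K9 peptide and 20 µM SAM. Monomethyl-H3K9 detected by AlphaScreen using anti-H3K9me1 antibody.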
Further: nearly all actives have a fitted effect of over 75% in size.
On the % scale 0 is the no-effect control and ±100 the full control effect; potency means the concentration at half of the fitted maximal effect; tags describe the fitted curve by direction and shape.

Compound	Potency	activity, negative = inhibition
Fc1ccc([C@@H]2Nc3ccccc3[C@@H]3C=CC[C@@H]32)cc1	active: 2.24 µM	–
Cc1ccc(NC(=O)c2cc3c(s2)CCC3)cc1S(=O)(=O)N1CCOCC1	inconclusive: 79.4 µM [inhibitor, single point]	–
CCOc1ccc(/C=C/C(=O)c2cc(Br)ccc(=O)c2O)cc1	active: 7.94 µM	–
CCC1CCCCN1Cc1cc(OC)c(O)c([N+](=O)[O-])c1 (stereo not drawn)	inconclusive: 44.7 µM [inhibitor, partial curve, poor fit]	–
O=C(Cn1nnc(-c2ccccc2)n1)NNC(=O)c1ccc(Br)cc1	inactive	–
O=C(COC(=O)c1ccc(O)cc1)Nc1ccc(N2CCCCC2)cc1	active: 44.7 µM	–
Cc1nc([N+](=O)[O-])c(Sc2nc3ccccc3n2C)n1Cc1ccccc1	inconclusive: 89.1 µM [inhibitor, single point]	–
CN1/C(=C\C(=O)COC(=O)CNC(=O)c2ccc3ccccc3c2)C(C)(C)c2ccccc21	inconclusive: 25.1 µM [inhibitor, single point]	–
CCCN(C(=O)c1cc2c(=O)n(CC)c3ccccc3c2s1)c1ccccc1F	inactive	–
CC(C)Nc1ccc(C(CC(N)=O)NC(=O)Cc2cccc3ccccc23)cc1[N+](=O)[O-] (stereo not drawn)	–	inconclusive: -53.4% [inhibitor]
COc1cc(OC)cc(C(=O)NCC(=O)N2CCN(c3ccc(O)cc3)CC2)c1	active: 22.4 µM	–
CSC1=C(C#N)C(c2ccc(C(C)C)cc2)CC(=O)N1 (stereo not drawn)	inconclusive: 100 µM [inhibitor, single point]	–
COc1cc(NC(=O)Cn2c(=O)n(Cc3ccccc3Cl)c(=O)c3cc(OC)c(OC)cc32)cc(OC)c1	inactive	–
CC(OCC(O)CN(C)Cc1nc2ccccc2c(=O)[nH]1)c1ccc(Cl)cc1 (stereo not drawn)	inactive	–
CC[n+]1c(C)sc2cc(C)ccc21	inconclusive: 28.2 µM [inhibitor, single point]	–
O=C(NCCc1ccccc1)c1cc(-c2cccc(Cl)c2)on1	inactive	–
O=C(c1cc(-c2ccccc2Cl)nc2ccccc12)N1CCN(c2ccccc2O)CC1	active: 56.2 µM	–
COc1ccc(CNc2n[nH]c(-c3ccco3)n2)cc1OC	inactive	–
CC(=O)Nc1ccc(SC[C@H](CC(C)C)N2CCN(CCc3ccccc3)CCC2=O)cc1	–	inactive: -4.92% [at 12.7 µM]
CCC(C)[C@@H](C(=O)N1CCNCC1)n1cc(CCCN=C(N)N)nn1 (stereo partly drawn)	–	inconclusive: -66.3% [inhibitor]
COc1ccc(NCc2nnc(SCc3ccccc3)n2-c2ccc(OC)cc2)cc1	active: 50.1 µM	–
CCOCCCn1c(=S)[nH]c2cc(C(=O)NCCN(CC)CC)ccc2c1=O	inconclusive: 39.8 µM [inhibitor, single point]	–
CC(=O)N1CCN(c2cc(N3CCc4ccccc4C3)c(F)cc2[N+](=O)[O-])CC1	active: 44.7 µM	–
O=C1CC(=O)N(Cc2ccco2)C(=O)N1	–	inconclusive: -173% [inhibitor]

Compound	Potency	activity, negative = inhibition
O=C1c2ccc([N+](=O)[O-])cc2NC(c2ccco2)N1/N=C/c1ccco1 (stereo not drawn)	inconclusive: 2.24 µM [inhibitor, partial curve, poor fit]	–
COc1cccc2sc(NNC(=O)C3COc4ccccc4O3)nc12 (stereo not drawn)	inconclusive: 50.1 µM [inhibitor, partial curve, poor fit]	–
CCc1nc2oc(C(=O)c3ccccc3)c(N)c2c2c1COC(C)(C)C2	inconclusive: 39.8 µM [inhibitor, single point]	–
C=CCOC(=O)C1=C[C@@H](c2cn(C(C)=O)c3ccccc23)C[C@@H](OCCCCO)O1	–	inconclusive: -70.4% [inhibitor]
CC1NC2(C(=O)N(Cc3ccccc3)c3ccccc32)C2C(=O)N(c3ccccc3)C(=O)C12 (stereo not drawn)	inconclusive: 39.8 µM [inhibitor, single point]	–
CCOc1ccc(C(=O)NC(=S)Nc2ccccn2)cc1[N+](=O)[O-]	inconclusive: 15.8 µM [inhibitor, single point]	–
N#C/C(=C\c1cccc(Oc2ccccc2)c1)C(=O)N1CCOCC1	inconclusive: 50.1 µM [inhibitor, partial curve]	–
CCOc1cc(N2CCOCC2)c(OCC)cc1NS(=O)(=O)c1ccc(Cl)s1	–	inconclusive: -62.5% [inhibitor]
CCn1c2c(c(=O)n3ncc(C(=O)Nc4ccc(OC(F)(F)F)cc4)c13)CN(Cc1ccc(OC)cc1)CC2	active: 12.6 µM	–
CN(C)c1ccc(NC(=S)NC(=O)/C=C/c2ccc(Cl)cc2)cc1	–	inactive: -28.9% [at 12.7 µM]
CN=C(Nc1ccc(C)c(C)c1)SC1CC(=O)N(c2ccc(OC)cc2)C1=O (stereo not drawn)	inconclusive: 39.8 µM [inhibitor, full curve, poor fit]	–
Cc1ccc(C(C2C(=O)CC(C)(C)CC2=O)C2C(=O)CC(C)(C)CC2=O)s1	active: 44.7 µM	–
COc1ccc(OCc2ccc(-c3nc(C#N)c(N4CCC(C(N)=O)CC4)o3)o2)cc1	inactive	–
CCCCCC(=O)N/N=C/c1ccc([N+](=O)[O-])o1	inactive	–
CCn1c(Cc2c(C)[nH]c3ccccc23)n[nH]c1=S	active: 1.78 µM	–
Nc1ccc(C(=O)n2c3ccccc3c3ccccc32)cc1	active: 8.91 µM	–
COc1ccc(NC(=O)CN(C)C(=O)CCCSc2nc3ccccc3[nH]2)cc1	inconclusive: 79.4 µM [inhibitor, single point]	–
Cc1ccc(-c2csc(/C(C#N)=C(\O)CCl)n2)cc1	active: 35.5 µM	–
CC(=O)N1CCN(c2ccc([N+](=O)[O-])cc2)CC1	inactive	–
COC(=O)c1ccc(CN2C(=O)c3ccccc3S2(=O)=O)cc1	inactive	–
O=C(O)CC1CCC(=C(Cl)Cl)C1 (stereo not drawn)	active: 44.7 µM	–
COc1cccc(N2CC(O)=C(c3ccccc3)C2=N)c1	inconclusive: 100 µM [inhibitor, single point]	–
COc1ccc(CC2(CO)CCN(Cc3cccnc3)CC2)cc1	active: 35.5 µM	–
CCc1ccc(S(=O)(=O)/N=C2/C=C(Sc3ncn[nH]3)C(=O)c3ccccc32)cc1	active: 1.41 µM	–
